The IC50 comes from the fitted curve, where viability falls to half of the control; a fit beyond the top or the lowest dose is shown as a bound at that dose. AUC is the area under the same curve over the 256-fold range up to the top dose, as a fraction: 1 means no effect, lower means more sensitive. For some assays here: Any top dose called inferred was derived from the fitted curves, not read from the paper.
How the values were obtained:
Experiment in all cases: Viability of human cancer cell lines after 72 h of drug (GDSC screen)
CP724714 = compound: COCC(=O)NC/C=C/c1ccc2ncnc(Nc3ccc(Oc4ccc(C)nc4)c(C)c3)c2c1 [CP724714]; conditions: top dose 10.24 µM; top dose inferred
Experimental: (§1)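 Human cancer cell lines in 384-well plates, medium with 10% serum, drug for 72 h over a 256-fold dose range (nine 2-fold or five 4-fold steps up to the top dose). Adherent lines were fixed and stained with the nucleic acid dye Syto60, suspension lines read with resazurin; signal relative to control wells, capped at 0 and 100%. One two-parameter sigmoid per drug and line, fitted in a mixed model over all curves with the slope shared within a line.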

Obatoclax mesylate = compound: COC1=CC(c2cc3ccccc3[nH]2)=N/C1=C\c1[nH]c(C)cc1C [Obatoclax mesylate]; conditions: top dose 16 µM
Experimental: as §1

CX-5461 = compound: Cc1cnc(CNC(=O)c2c(=O)c3ccc(N4CCCN(C)CC4)nc3n3c2sc2ccccc23)cn1 [CX-5461]; conditions: top dose 10.24 µM; top dose inferred
Experimental: as §1

STF-62247 = compound: Cc1cccc(Nc2nc(-c3ccncc3)cs2)c1 [STF-62247]; conditions: top dose 10.24 µM; top dose inferred
Experimental: as §1

Row | Cell Line | AUC (CP724714) | IC50 (CP724714) [µM] | AUC (Obatoclax mesylate) | IC50 (Obatoclax mesylate) [µM] | AUC (CX-5461) | IC50 (CX-5461) [µM] | AUC (STF-62247) | IC50 (STF-62247) [µM]
1 | NCI-H2342 (lung adenocarcinoma, adherent) | 0.969 | > 10.2 | 0.14 | 0.0636 | 0.985 | > 10.2 | 0.986 | > 10.2
2 | NCI-H2347 (lung adenocarcinoma, adherent) | 0.983 | > 10.2 | 0.468 | 0.801 | 0.952 | > 10.2 | 0.972 | > 10.2
3 | NCI-H2405 (lung adenocarcinoma, adherent) | 0.977 | > 10.2 | 0.293 | 0.242 | 0.976 | > 10.2 | 0.986 | > 10.2
4 | NCI-H2444 (non-small cell lung carcinoma, adherent) | 0.981 | > 10.2 | 0.687 | 3.62 | 0.988 | > 10.2 | 0.987 | > 10.2
5 | NCI-H2452 (mesothelioma, adherent) | 0.982 | > 10.2 | 0.868 | > 16 | 0.98 | > 10.2 | 0.979 | > 10.2
6 | NCI-H3122 (lung adenocarcinoma, adherent) | 0.971 | > 10.2 | 0.26 | 0.2 | 0.804 | 5.31 | 0.987 | > 10.2
7 | NUGC-3 (stomach, adherent) | 0.965 | > 10.2 | 0.154 | 0.0717 | 0.982 | > 10.2 | 0.976 | > 10.2
8 | NUGC-4 (stomach, adherent) | 0.962 | > 10.2 | 0.058 | < 0.0625 | 0.871 | 9.61 | 0.703 | 2.38
9 | NY (osteosarcoma, adherent) | 0.988 | > 10.2 | 0.21 | 0.142 | 0.986 | > 10.2 | 0.988 | > 10.2
10 | OAW-28 (ovary, adherent) | 0.973 | > 10.2 | 0.3 | 0.233 | 0.98 | > 10.2 | 0.964 | > 10.2
11 | OAW-42 (ovary, adherent) | 0.973 | > 10.2 | 0.272 | 0.211 | 0.969 | > 10.2 | 0.983 | > 10.2
12 | OCUM-1 (stomach, adherent) | 0.981 | > 10.2 | 0.37 | 0.42 | 0.987 | > 10.2 | 0.986 | > 10.2
13 | OE19 (oesophagus, adherent) | 0.89 | > 10.2 | 0.561 | 1.5 | 0.986 | > 10.2 | 0.984 | > 10.2
14 | OE21 (oesophagus, adherent) | 0.971 | > 10.2 | 0.103 | < 0.0625 | 0.965 | > 10.2 | 0.973 | > 10.2
15 | OE33 (oesophagus, adherent) | 0.951 | > 10.2 | 0.315 | 0.273 | 0.962 | > 10.2 | 0.938 | > 10.2
16 | OSC-19 (head and neck, adherent) | 0.969 | > 10.2 | 0.2 | 0.123 | 0.984 | > 10.2 | 0.987 | > 10.2

Row | Cell Line | AUC (CP724714) | IC50 (CP724714) [µM] | AUC (Obatoclax mesylate) | IC50 (Obatoclax mesylate) [µM] | AUC (CX-5461) | IC50 (CX-5461) [µM] | AUC (STF-62247) | IC50 (STF-62247) [µM]
17 | OSC-20 (head and neck, adherent) | 0.945 | > 10.2 | 0.137 | < 0.0625 | 0.909 | > 10.2 | 0.97 | > 10.2
18 | OV-90 (ovary, adherent) | 0.966 | > 10.2 | 0.393 | 0.467 | 0.979 | > 10.2 | 0.973 | > 10.2
19 | OVCAR-3 (ovary, adherent) | 0.987 | > 10.2 | 0.402 | 0.523 | 0.987 | > 10.2 | 0.987 | > 10.2
20 | OVCAR-5 (ovary, adherent) | 0.981 | > 10.2 | 0.395 | 0.484 | 0.969 | > 10.2 | 0.981 | > 10.2
21 | OVCAR-8 (ovary, adherent) | 0.981 | > 10.2 | 0.109 | 0.0654 | 0.552 | 0.871 | 0.982 | > 10.2
22 | OVISE (ovary, adherent) | 0.959 | > 10.2 | 0.351 | 0.337 | 0.853 | > 10.2 | 0.91 | > 10.2
23 | OVKATE (ovary, adherent) | 0.974 | > 10.2 | 0.828 | > 16 | 0.922 | > 10.2 | 0.924 | > 10.2
24 | OVMIU (ovary, adherent) | 0.849 | > 10.2 | 0.309 | 0.253 | 0.71 | 2.93 | 0.959 | > 10.2
25 | OVTOKO (ovary, adherent) | 0.936 | > 10.2 | 0.316 | 0.264 | 0.922 | > 10.2 | 0.905 | > 10.2
26 | P12-ICHIKAWA (T-cell lymphoblastic leukaemia, suspension) | 0.985 | > 10.2 | 0.13 | 0.106 | 0.389 | 0.341 | 0.92 | 9.44
27 | PA-1 (ovary, adherent) | 0.99 | > 10.2 | 0.128 | 0.102 | 0.345 | 0.264 | 0.907 | 8.55
28 | PA-TU-8902 (pancreas, adherent) | 0.98 | > 10.2 | 0.418 | 0.573 | 0.827 | 7.74 | 0.956 | > 10.2
29 | PA-TU-8988T (pancreas, adherent) | 0.973 | > 10.2 | 0.292 | 0.259 | 0.868 | 9.41 | 0.984 | > 10.2
30 | PANC-02-03 (pancreas, adherent) | 0.977 | > 10.2 | 0.575 | 1.67 | 0.966 | > 10.2 | 0.966 | > 10.2
31 | PANC-03-27 (pancreas, adherent) | 0.971 | > 10.2 | 0.173 | 0.112 | 0.891 | > 10.2 | 0.988 | > 10.2

From the supplement of paper PMC4967469
